In the BET-seq Pho4 binding data (Le et al. 2018):
The other results are listed elsewhere or left out. Values were computed here from the reads of four pooled replicates and scatter widely.

Target: T1, Pho4 (S. cerevisiae) (UniProt P07270)
T1 sequence: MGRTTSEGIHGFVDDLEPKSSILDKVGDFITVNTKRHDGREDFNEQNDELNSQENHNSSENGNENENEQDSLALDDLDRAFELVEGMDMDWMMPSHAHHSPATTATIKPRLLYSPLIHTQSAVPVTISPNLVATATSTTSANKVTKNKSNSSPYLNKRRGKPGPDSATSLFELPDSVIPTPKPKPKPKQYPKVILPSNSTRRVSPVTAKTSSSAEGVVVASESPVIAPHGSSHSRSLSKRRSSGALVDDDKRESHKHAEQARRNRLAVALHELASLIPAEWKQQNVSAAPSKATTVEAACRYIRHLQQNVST
Assay: relative binding free energy (BET-seq); higher = weaker binding
Settings: reference: library average

Sequence | relative binding free energy
TGTAACACGTGTGGCC | 0.07 kcal/mol
TGGGTCACGTGAGTGG | 0.27 kcal/mol
CGGAGCACGTGGTGTG | -0.08 kcal/mol
TGCGTCACGTGAGATG | 0.22 kcal/mol
TATATCACGTGCCGTG | 0.11 kcal/mol
GTTAACACGTGCTGTT | -0.22 kcal/mol
GCATACACGTGTTTGT | 0.13 kcal/mol
TTAGGCACGTGGGCGA | -0.21 kcal/mol
CTTGGCACGTGGACGG | -0.11 kcal/mol
TGCGGCACGTGGTGTC | -0.14 kcal/mol
GGACACACGTGTTTGG | 0.07 kcal/mol
GGGTACACGTGGCTTG | -0.02 kcal/mol
GGATTCACGTGGTGAG | 0.35 kcal/mol
ATGTTCACGTGGGTTA | 0.21 kcal/mol
TTTAGCACGTGAAGAT | 0.12 kcal/mol
ATCGCCACGTGGTGGG | -0.27 kcal/mol
AGTTTCACGTGTAGTG | 0.29 kcal/mol
CGTGTCACGTGAGCGT | 0.11 kcal/mol
GAGTGCACGTGTGGAA | 0.16 kcal/mol
TGTTACACGTGTTGGG | 0.14 kcal/mol
TTTATCACGTGTGCTC | 0.3 kcal/mol
ATGGGCACGTGGTTTA | -0.09 kcal/mol
GGGGTCACGTGAGCTG | 0.33 kcal/mol

Sequence | relative binding free energy
TTGGCCACGTGCTAGG | -0.14 kcal/mol
GGTTACACGTGTAATG | 0.12 kcal/mol
TATTGCACGTGTGGGA | 0.08 kcal/mol
TTGGTCACGTGACGAA | 0.27 kcal/mol
CTTCTCACGTGTATTG | 0.2 kcal/mol
TTTAGCACGTGTTATG | -0.11 kcal/mol
CATAGCACGTGTAGGG | -0.13 kcal/mol
GTAGGCACGTGGCTAT | -0.04 kcal/mol
AGAGGCACGTGGAATA | -0.04 kcal/mol
GTATTCACGTGTGTCG | 0.11 kcal/mol
ACTTGCACGTGGGAGG | -0.16 kcal/mol
TTGTGCACGTGGATAT | -0.01 kcal/mol
GAGAGCACGTGAGCGG | 0.07 kcal/mol
TTGGACACGTGGTGGG | 0.02 kcal/mol
GTGGACACGTGTAAAG | 0.28 kcal/mol
GTGTACACGTGGTAGA | -0.11 kcal/mol
TTAATCACGTGCAAGT | 0.23 kcal/mol
GCGGACACGTGGGTTG | -0.2 kcal/mol
GGGCGCACGTGCAGTT | 0 kcal/mol
GGGTCCACGTGAAGGA | 0.33 kcal/mol
AAATTCACGTGGTGCG | 0.22 kcal/mol
GGTCTCACGTGGGCAG | 0.12 kcal/mol
TAGCGCACGTGTTGGT | -0.05 kcal/mol

Sequence | relative binding free energy
TGGTGCACGTGACAGT | 0.06 kcal/mol
CGGTGCACGTGGCGCT | 0 kcal/mol
GCTAGCACGTGTTAGG | 0.08 kcal/mol
TGCATCACGTGTGTGT | 0.14 kcal/mol
TAGTTCACGTGGAGTA | 0.33 kcal/mol
TAGTTCACGTGTGTTA | 0.35 kcal/mol
AGGCGCACGTGGGGGG | -0.26 kcal/mol
TGCTTCACGTGTTGTT | 0.35 kcal/mol
TTGGACACGTGGATAG | 0.1 kcal/mol
ATTTCCACGTGTAGTG | -0.09 kcal/mol
GTAGCCACGTGGGCGG | -0.19 kcal/mol
GGAGGCACGTGTGCGG | -0.08 kcal/mol
TGGTACACGTGGGACA | -0.1 kcal/mol
GAGTACACGTGCTTTG | 0.19 kcal/mol
GGCTGCACGTGTTAAA | 0.24 kcal/mol
ACTGTCACGTGCTGTT | 0.15 kcal/mol
TGTAGCACGTGGTCGG | -0.19 kcal/mol
TCGGGCACGTGGTTTG | -0.1 kcal/mol
CGGTGCACGTGTATGT | 0.03 kcal/mol
TTGTGCACGTGTAGAC | 0.06 kcal/mol
TAAGTCACGTGTTGAC | 0.24 kcal/mol
GTAGTCACGTGTGTGC | 0.22 kcal/mol
GATAACACGTGAAGGT | 0.33 kcal/mol

Sequence | relative binding free energy
GTCTGCACGTGCAGGG | -0.13 kcal/mol
GTTTCCACGTGGAGGA | 0.29 kcal/mol
ATGTTCACGTGAGGGG | 0.31 kcal/mol
TGTGACACGTGGTATT | -0.02 kcal/mol
TGGTCCACGTGTGGTG | 0.08 kcal/mol
TATCGCACGTGCTTTT | -0.04 kcal/mol
CGTAACACGTGGATGG | 0.06 kcal/mol
TACATCACGTGTTTTG | 0.13 kcal/mol
TCAGGCACGTGAGTGG | 0.08 kcal/mol
TTTTGCACGTGTTAAT | 0.07 kcal/mol
GAGAGCACGTGTGCGT | -0.06 kcal/mol
TGTTACACGTGAGAAT | 0.44 kcal/mol
CGTGGCACGTGCGGTG | -0.17 kcal/mol
TATGTCACGTGTGTAG | 0.16 kcal/mol
AGGCACACGTGAAGTT | 0.22 kcal/mol
ATTTTCACGTGGGTGC | 0.28 kcal/mol
TTGCTCACGTGGGGAA | 0.08 kcal/mol
ATTGTCACGTGTTCTG | 0.16 kcal/mol
ATCGTCACGTGAATGT | 0.18 kcal/mol
AATGGCACGTGGTTGA | -0.18 kcal/mol
ATAAGCACGTGTATTT | -0.07 kcal/mol
GATTACACGTGAGGTC | 0.45 kcal/mol
GAGTGCACGTGGGGCA | -0.04 kcal/mol

Sequence | relative binding free energy
GATAGCACGTGGGGGT | -0.13 kcal/mol
GTTGGCACGTGGATAG | -0.1 kcal/mol
ATGAACACGTGAAGGG | 0.05 kcal/mol
AAGTACACGTGTAGTT | -0.02 kcal/mol
GGATGCACGTGATAAT | 0.12 kcal/mol
AGGGACACGTGGGGAA | -0.14 kcal/mol
CGCTACACGTGTTGTG | 0.21 kcal/mol
AGCTGCACGTGGTGTG | -0.18 kcal/mol
ATGGTCACGTGGCGTT | 0.2 kcal/mol
ACTGGCACGTGGAGGC | -0.02 kcal/mol
AGTGTCACGTGGGGCA | -0.06 kcal/mol
TGTGACACGTGGGCAT | -0.04 kcal/mol
AATTACACGTGTTTTT | 0.06 kcal/mol
GGTCCCACGTGGGGGG | -0.24 kcal/mol
TAGGGCACGTGAGGTT | 0.05 kcal/mol
ACTGTCACGTGGCGTA | 0.08 kcal/mol
GTTCACACGTGGGTTA | -0.07 kcal/mol
TATCACACGTGGTTAG | 0.07 kcal/mol
GGAGGCACGTGGTGCT | -0.17 kcal/mol
TTGTACACGTGGCTAG | 0 kcal/mol
AGGATCACGTGTCGAG | 0.16 kcal/mol
ATAAACACGTGGTAGA | 0.07 kcal/mol
CGTACCACGTGTTGTG | -0.1 kcal/mol
